In the antibiotic and cytotoxicity screens of Wong et al. (2023) one finds cytotoxicity call and growth inhibition call data, which are given here for 27 molecules.

One experiment has as its system HSkMC. Description: cytotoxicity call (relative viability < 0.9). As to conditions: 10 µM.
In the next experiment the test system is HepG2. Briefly: cytotoxicity call (relative viability < 0.9). To be noted: 10 µM.
For another experiment, the system named is S. aureus RN4220. Description: growth inhibition call (relative growth <= 0.2). As to conditions: 50 µM.

Structures are written as SMILES. This is one part of the list.

For the molecule `C[C@@H]1CN([C@H](C)CO)C(=O)Cc2cc(NS(=O)(=O)c3cn(C)cn3)ccc2O[C@H]1CN(C)S(C)(=O)=O`, the cytotoxicity call in the experiment with HSkMC and in the experiment on HepG2 was “inactive” throughout. Moreover, the growth inhibition call in the experiment on S. aureus RN4220 is “inactive”.

Regarding `C=C(O)C(=O)OCC`, the cytotoxicity call in the experiment with HSkMC and with HepG2 was “inactive” in each case. The growth inhibition call in the experiment on S. aureus RN4220 was “inactive”.

On to `C[C@H](CO)N1C[C@H](C)[C@@H](CN(C)Cc2ccc(C(F)(F)F)cc2)OCCCC[C@H](C)Oc2ccc(NS(=O)(=O)c3cn(C)cn3)cc2C1=O`, for which the cytotoxicity call in the experiment on HSkMC and in the experiment on HepG2 was “inactive” throughout. For the same molecule, the growth inhibition call with S. aureus RN4220 is “inactive”.

`C[C@H]1CN([C@@H](C)CO)C(=O)c2cccc(NC(=O)Nc3cccc4ccccc34)c2O[C@H]1CN(C)Cc1ccncc1`: the cytotoxicity call with HSkMC and in the experiment on HepG2 was “inactive” in each case. Moreover, the growth inhibition call in the experiment with S. aureus RN4220 is “inactive”.

For the molecule `CC(C)CC#Cc1ccc2c(c1)O[C@@H](CN(C)C(=O)c1cnccn1)[C@H](C)CN([C@H](C)CO)S2(=O)=O`, the cytotoxicity call in the experiment on HSkMC and in the experiment on HepG2 was “inactive” each time. In addition, the growth inhibition call with S. aureus RN4220 is “inactive”.

As to `C[C@@H]1CN([C@H](C)CO)C(=O)Cc2cc(NS(=O)(=O)c3cn(C)cn3)ccc2O[C@@H]1CN(C)S(=O)(=O)c1cn(C)cn1`, the cytotoxicity call in the experiment on HSkMC and with HepG2 was “inactive” throughout. In addition, the growth inhibition call in the experiment with S. aureus RN4220 is “inactive”.

On to `Cc1noc(C)c1NC(=O)Nc1ccc2c(c1)C(=O)N([C@@H](C)CO)C[C@@H](C)[C@H](CN(C)Cc1ccc(C(F)(F)F)cc1)OCCCC[C@@H](C)O2`, for which the cytotoxicity call in the experiment with HSkMC and with HepG2 was “inactive” each time. Besides, in the experiment with S. aureus RN4220, the growth inhibition call was “inactive”.

Regarding `Cn1c(=O)oc2cc(S(=O)(=O)N3CCC[C@H](C(=O)NN4CCOCC4)C3)ccc21`, the cytotoxicity call with HSkMC and in the experiment with HepG2 was “inactive” throughout. In addition, the growth inhibition call in the experiment with S. aureus RN4220 is “inactive”.

Regarding `CC(=O)Oc1c(C)cccc1C(=O)O`, the cytotoxicity call in the experiment with HSkMC and in the experiment on HepG2 was “inactive” each time. Moreover, the growth inhibition call in the experiment with S. aureus RN4220 is “inactive”.

As to `Cc1ccc(S(=O)(=O)N(C)C[C@H]2Oc3ccc(NC(=O)c4ccncc4)cc3CC(=O)N([C@H](C)CO)C[C@H]2C)cc1`, the cytotoxicity call with HSkMC and in the experiment with HepG2 was “inactive” throughout. Further, in the experiment with S. aureus RN4220, the growth inhibition call was “inactive”.

Regarding `Cc1cn([C@H]2C[C@H](N=[N+]=[N-])[C@@H](CO)O2)c(=O)[nH]c1=O`, the cytotoxicity call with HSkMC and in the experiment on HepG2 was “inactive” each time. The growth inhibition call in the experiment with S. aureus RN4220 was “inactive”.

Take `C=CC[C@H](CC(=O)N[C@@H](CO)Cc1ccccc1)C(=O)N[C@@H](COC(=O)[C@@H](CC=C)Cc1ccc(F)cc1)Cc1ccccc1`: the cytotoxicity call with HSkMC and in the experiment with HepG2 was “inactive” throughout. Moreover, the growth inhibition call with S. aureus RN4220 is “inactive”.

As to `COc1ccc(S(=O)(=O)N(C)C[C@@H]2Oc3ccc(NC(=O)Cc4ccccc4)cc3CC(=O)N([C@@H](C)CO)C[C@H]2C)cc1`, the cytotoxicity call in the experiment with HSkMC and with HepG2 was “inactive” in each case. Also, the growth inhibition call with S. aureus RN4220 was “inactive”.

On to `C[C@@H]1CCCCO[C@@H](CN(C)S(=O)(=O)c2ccccc2)[C@H](C)CN([C@H](C)CO)C(=O)c2cc(NC(=O)Nc3ccccc3)ccc2O1`, for which the cytotoxicity call in the experiment with HSkMC and with HepG2 was “inactive” in each case. Further, the growth inhibition call in the experiment with S. aureus RN4220 is “inactive”.

Consider `CCCC#Cc1ccc2c(c1)O[C@@H](CN(C)C(=O)c1cnccn1)[C@@H](C)CN([C@H](C)CO)S2(=O)=O`, for which the cytotoxicity call in the experiment on HSkMC and with HepG2 was “inactive” throughout. Besides, the growth inhibition call in the experiment with S. aureus RN4220 was “inactive”.

Regarding `C[C@H]1CN([C@@H](C)CO)C(=O)Cc2cc(NC(=O)Nc3ccccc3)ccc2O[C@@H]1CN(C)C(=O)Nc1cccc2ccccc12`, the cytotoxicity call in the experiment on HSkMC and in the experiment on HepG2 was “inactive” in each case. The growth inhibition call in the experiment with S. aureus RN4220 was “inactive”.

Turning to `O=S(=O)(O)c1cc(O)ccc1O`, in the experiment on HSkMC, the cytotoxicity call was “inactive”. For the same molecule, the cytotoxicity call in the experiment with HepG2 was “active”. Besides, the growth inhibition call in the experiment with S. aureus RN4220 was “inactive”.

As for `O=C(CCCCCNC(=O)OCc1ccc(CO[C@H]2C[C@@H](c3coc4ccccc4c3=O)C=C(C(=O)N3CCN(Cc4ccccc4)CC3)O2)cc1)NO`, the cytotoxicity call with HSkMC and with HepG2 was “inactive” each time. In the experiment on S. aureus RN4220, the growth inhibition call was “inactive”.

`C[C@H]1CN([C@@H](C)CO)C(=O)c2cc(NC(=O)C3CC3)ccc2O[C@H]1CN(C)S(=O)(=O)c1cccs1`: the cytotoxicity call in the experiment with HSkMC and with HepG2 was “inactive” each time. In addition, the growth inhibition call in the experiment on S. aureus RN4220 was “inactive”.

Turning to `C[C@@H]1CN([C@@H](C)CO)C(=O)c2cc(NC(=O)Nc3ccc4c(c3)OCO4)ccc2O[C@@H](C)CCCCO[C@H]1CN(C)CC1CCCCC1`, the cytotoxicity call with HSkMC is “inactive”. In the experiment on HepG2, the cytotoxicity call was “active”. Moreover, the growth inhibition call in the experiment with S. aureus RN4220 was “inactive”.

For `Cc1ccc(-c2ccc3c(c2)O[C@@H](CN(C)C(=O)CN(C)C)[C@H](C)CN([C@H](C)CO)S3(=O)=O)cc1`, the cytotoxicity call in the experiment with HSkMC and with HepG2 was “inactive” in each case. Besides, in the experiment with S. aureus RN4220, the growth inhibition call is “inactive”.

Regarding `O=C1OCCC/C=C\[C@H]2O[C@@]34C=CCN(c5ccc6ccccc6c5)C(=O)[C@H]3N(CCCO)C(=O)[C@@H]4[C@@H]12`, the cytotoxicity call in the experiment with HSkMC and in the experiment on HepG2 was “inactive” throughout. The growth inhibition call with S. aureus RN4220 was “inactive”.

As for `COc1ccc(NC(=O)N(C)C[C@H]2Oc3c(NS(=O)(=O)c4c(C)noc4C)cccc3C(=O)N([C@H](C)CO)C[C@H]2C)cc1`, the cytotoxicity call with HSkMC and in the experiment on HepG2 was “inactive” each time. The growth inhibition call in the experiment with S. aureus RN4220 was “inactive”.

For the molecule `C=CCNC(=O)[C@@H]1[C@H]2C(=O)O[C@H](c3ccccc3)[C@H](c3ccccc3)N2[C@H](c2ccc(OCCO)cc2)[C@@]12C(=O)Nc1ccc(C#CC3=CCCCC3)cc12`, the cytotoxicity call in the experiment with HSkMC and in the experiment on HepG2 was “inactive” in each case. For the same molecule, the growth inhibition call with S. aureus RN4220 is “inactive”.

As for `Cc1noc(C)c1NC(=O)N(C)C[C@@H]1OCCCC[C@H](C)Oc2ccc(NC(=O)c3ccccc3)cc2C(=O)N([C@H](C)CO)C[C@@H]1C`, the cytotoxicity call in the experiment with HSkMC and in the experiment with HepG2 was “inactive” each time. In addition, the growth inhibition call in the experiment with S. aureus RN4220 was “inactive”.

`C[C@@H]1CN([C@@H](C)CO)C(=O)c2cc(NC(=O)Nc3ccc(C(F)(F)F)cc3)ccc2O[C@@H](C)CCCCO[C@H]1CN(C)Cc1ccc(C(=O)O)cc1`: the cytotoxicity call in the experiment on HSkMC (human skeletal muscle cells) and in the experiment with HepG2 was “inactive” throughout. In addition, in the experiment with S. aureus RN4220, the growth inhibition call was “inactive”.

As to `C[C@H](CO)N1C[C@H](C)[C@@H](CN(C)Cc2ccc(C(=O)Nc3ccccc3N)cc2)Oc2ccc(NS(C)(=O)=O)cc2C1=O`, the cytotoxicity call in the experiment with HSkMC and in the experiment with HepG2 was “inactive” in each case. The growth inhibition call with S. aureus RN4220 was “inactive”.
